Reference: the supplement of paper PMC4604168 (melanoma cell lines)
The list shows a part of the results. Single values are uncertain, as repeats are few or missing.

Tests used:
Assay in all cases: cell count relative to DMSO control; melanoma cells; higher = more viable cells
Settings in all cases: library dose: low library concentration; 72 h; first compound 0.4 µM
WM115 = test system: WM115
WM1716 = test system: WM1716
WM1745 = test system: WM1745
WM3526 = test system: WM3526
WM3619 = test system: WM3619
WM451Lu = test system: WM451Lu
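Also: cell number obtained by counting DAPI-stained nuclei in high-throughput microscope images with image analysis software, screen run in 1,536-well plates.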

Row | SMILES | cell count (WM115) [%] | cell count (WM1716) [%] | cell count (WM1745) [%] | cell count (WM3526) [%] | cell count (WM3619) [%] | cell count (WM451Lu) [%]
1 | C[C@@H](N)c1ccc(C(=O)Nc2ccnc3[nH]ccc23)cc1 + NC(=O)c1ccc(N(C(N)=O)c2c(F)cccc2F)nc1-c1ccc(F)cc1F [VX702] (partner dose 0.4 µM) | 114 | 71.3 | 82.2 | 109 | 123 | 96.3
2 | CCCCCCCCCCCCCCCCCCOP(=O)([O-])OC1CC[N+](C)(C)CC1 [Perifosine] + CC(C)(C)c1cnc(CSc2cnc(NC(=O)C3CCNCC3)s2)o1 [SNS-032] (partner dose 0.01 µM) | 82.4 | 79.7 | 70.8 | 94.5 | 84 | 121
3 | C[C@@H](N)c1ccc(C(=O)Nc2ccnc3[nH]ccc23)cc1 + CO[C@@H]1[C@H](N(C)C(=O)c2ccccc2)C[C@H]2O[C@]1(C)n1c3ccccc3c3c4c(c5c6ccccc6n2c5c31)C(=O)NC4 [Midostaurin] (partner dose 0.08 µM) | 114 | 79.9 | 80.4 | 100 | 74.7 | 65.4
4 | C[C@@H](N)c1ccc(C(=O)Nc2ccnc3[nH]ccc23)cc1 + Nc1ccn([C@@H]2O[C@H](CO)[C@@H](O)C2(F)F)c(=O)n1 [gemcitabine] (partner dose 0.0004 µM) | 103 | 72 | 71.4 | 115 | 71.2 | 118
5 | CCCCCCCCCCCCCCCCCCOP(=O)([O-])OC1CC[N+](C)(C)CC1 [Perifosine] + NC1(c2ccc(-c3nc4ccn5c(=O)[nH]nc5c4cc3-c3ccccc3)cc2)CCC1 [MK2206] (partner dose 0.4 µM) | 69.3 | 85.9 | 74.8 | 91.4 | 91.1 | 86.3
6 | Cn1sc(=O)n(Cc2ccccc2)c1=O + Cc1cc(Nc2cc(N3CCN(C)CC3)nc(/C=C/c3ccccc3)n2)n[nH]1 [ENMD2076] (partner dose 0.04 µM) | 102 | 96.3 | 118 | 92.4 | 90.3 | 93.7
7 | CCCCCCCCCCCCCCCCCCOP(=O)([O-])OC1CC[N+](C)(C)CC1 [Perifosine] + CCN(CC)CCNC(=O)c1c(C)[nH]c(/C=C2\C(=O)Nc3ccc(F)cc32)c1C [sunitinib] (partner dose 0.4 µM) | 113 | 131 | 94.7 | 112 | 121 | 94.2
8 | CCCCCCCCCCCCCCCCCCOP(=O)([O-])OC1CC[N+](C)(C)CC1 [Perifosine] + CCN(CC)CCCCNc1ncc2cc(-c3cc(OC)cc(OC)c3)c(NC(=O)NC(C)(C)C)nc2n1 [PD173074] (partner dose 0.1 µM) | 96.8 | 91.4 | 97.3 | 94.7 | 81.7 | 98.5
9 | C[C@@H](N)c1ccc(C(=O)Nc2ccnc3[nH]ccc23)cc1 + COc1ccc(COc2ccc(Cc3cnc(N)nc3N)cc2OC)cc1 [GW2580] (partner dose 1 µM) | 112 | 66.7 | 73.6 | 98.1 | 99.1 | 101
10 | CCCCCCCCCCCCCCCCCCOP(=O)([O-])OC1CC[N+](C)(C)CC1 [Perifosine] + CCCS(=O)(=O)Nc1ccc(F)c(C(=O)c2c[nH]c3ncc(Cl)cc23)c1F [PLX4720] (partner dose 0.08 µM) | 106 | 112 | 126 | 110 | 119 | 108
11 | C[C@@H](N)c1ccc(C(=O)Nc2ccnc3[nH]ccc23)cc1 + OCc1c[nH]c2ccccc12 [Indole-3-carbinol] (partner dose 0.8 µM) | 92.6 | 61.5 | 66.2 | 93.8 | 90.3 | 79.2
12 | Cn1sc(=O)n(Cc2ccccc2)c1=O + CN(C)S(=O)(=O)c1ccc2c(c1)/C(=C/c1cc3c([nH]1)CCCC3)C(=O)N2 [SU6656] (partner dose 0.4 µM) | 62.6 | 92.7 | 88 | 90.2 | 94.7 | 83.5
13 | CCCCCCCCCCCCCCCCCCOP(=O)([O-])OC1CC[N+](C)(C)CC1 [Perifosine] + Nc1ccn([C@@H]2O[C@H](CO)[C@@H](O)C2(F)F)c(=O)n1 [gemcitabine] (partner dose 0.0004 µM) | 89.2 | 85.4 | 74.1 | 97.7 | 114 | 98.5
14 | CCCCCCCCCCCCCCCCCCOP(=O)([O-])OC1CC[N+](C)(C)CC1 [Perifosine] + CS(=O)(=O)CCNCc1ccc(-c2ccc3ncnc(Nc4ccc(OCc5cccc(F)c5)c(Cl)c4)c3c2)o1 [lapatinib] (partner dose 0.8 µM) | 89 | 98.7 | 88.5 | 127 | 98.7 | 92.2
15 | CCCCCCCCCCCCCCCCCCOP(=O)([O-])OC1CC[N+](C)(C)CC1 [Perifosine] + O=C(Nc1cccc(Cl)c1)Nc1ncc(CCNc2ncnc3ccsc23)s1 [SNS314] (partner dose 0.0008 µM) | 84.1 | 93.9 | 82.9 | 88 | 89.5 | 74.2
16 | C[C@@H](N)c1ccc(C(=O)Nc2ccnc3[nH]ccc23)cc1 + CS(=O)(=O)c1ccc(C(=O)Nc2ccc(Cl)c(-c3ccccn3)c2)c(Cl)c1 [vismodegib] (partner dose 1 µM) | 118 | 69.4 | 76 | 115 | 123 | 88

Row | SMILES | cell count (WM115) [%] | cell count (WM1716) [%] | cell count (WM1745) [%] | cell count (WM3526) [%] | cell count (WM3619) [%] | cell count (WM451Lu) [%]
17 | CCCCCCCCCCCCCCCCCCOP(=O)([O-])OC1CC[N+](C)(C)CC1 [Perifosine] + Cn1sc(=O)n(Cc2ccccc2)c1=O [TDZD-8] (partner dose 0.4 µM) | 91.6 | 101 | 86.7 | 94.7 | 97.5 | 68.8
18 | C[C@@H](N)c1ccc(C(=O)Nc2ccnc3[nH]ccc23)cc1 + CC1(C)NC(=O)N(c2ccc([N+](=O)[O-])c(C(F)(F)F)c2)C1=O [nilutamide] (partner dose 1 µM) | 110 | 76.5 | 87.9 | 118 | 98.9 | 90
19 | C[C@@H](N)c1ccc(C(=O)Nc2ccnc3[nH]ccc23)cc1 + Cn1cncc1[C@@](N)(c1ccc(Cl)cc1)c1ccc2c(c1)c(-c1cccc(Cl)c1)cc(=O)n2C [tipifarnib] (partner dose 0.01 µM) | 97.7 | 70.7 | 77.1 | 102 | 91.2 | 87.1
20 | Cn1sc(=O)n(Cc2ccccc2)c1=O + CN(c1ncccc1CNc1nc(Nc2ccc3c(c2)CC(=O)N3)ncc1C(F)(F)F)S(C)(=O)=O [PF562271] (partner dose 0.08 µM) | 80.9 | 73.1 | 87.6 | 104 | 92.9 | 94.2
21 | C[C@@H](N)c1ccc(C(=O)Nc2ccnc3[nH]ccc23)cc1 + CCCCCCCCc1ccc(CCC(N)(CO)CO)cc1 [fingolimod] (partner dose 2 µM) | 109 | 71.8 | 72.6 | 103 | 98 | 99.4
22 | Cn1sc(=O)n(Cc2ccccc2)c1=O + O=c1cc(-c2cccc3c2Sc2ccccc2S3)oc(N2CCOCC2)c1 [KU55933] (partner dose 1 µM) | 97.4 | 99 | 88.4 | 89 | 118 | 96.6
23 | CCCCCCCCCCCCCCCCCCOP(=O)([O-])OC1CC[N+](C)(C)CC1 [Perifosine] + Cc1ccc(Nc2nccc(N(C)c3ccc4c(C)n(C)nc4c3)n2)cc1S(N)(=O)=O [Pazopanib] (partner dose 0.4 µM) | 93.6 | 89.4 | 97.5 | 88.6 | 80.9 | 90.6
24 | Cn1sc(=O)n(Cc2ccccc2)c1=O + C[C@]1(O)C[C@@H](c2nc(-c3ccc4ccc(-c5ccccc5)nc4c3)c3c(N)nccn32)C1 [OSI906] (partner dose 0.4 µM) | 101 | 97.8 | 73.4 | 110 | 94.5 | 83.4
25 | Cn1sc(=O)n(Cc2ccccc2)c1=O + CCN(CC)CCNC(=O)c1c(C)[nH]c(/C=C2\C(=O)Nc3ccc(F)cc32)c1C [sunitinib] (partner dose 0.4 µM) | 107 | 122 | 78.7 | 104 | 150 | 98.9
26 | C[C@@H](N)c1ccc(C(=O)Nc2ccnc3[nH]ccc23)cc1 + CN1CCN(c2ccc3nc(-c4c(N)c5c(F)cccc5[nH]c4=O)[nH]c3c2)CC1 [Dovitinib] (partner dose 0.1 µM) | 122 | 81.8 | 64.5 | 101 | 82.7 | 104
27 | Cn1sc(=O)n(Cc2ccccc2)c1=O + C=CCn1c(=O)c2cnc(Nc3ccc(N4CCN(C)CC4)cc3)nc2n1-c1cccc(C(C)(C)O)n1 [MK1775] (partner dose 0.02 µM) | 89.4 | 102 | 79.9 | 95.6 | 69.8 | 102
28 | Cn1sc(=O)n(Cc2ccccc2)c1=O + O=C1NC(=O)/C(=C/c2ccc(-c3ccc(F)cc3O)o2)S1 [AS252424] (partner dose 1 µM) | 101 | 102 | 85.7 | 90.6 | 93.9 | 104
29 | CCCCCCCCCCCCCCCCCCOP(=O)([O-])OC1CC[N+](C)(C)CC1 [Perifosine] + Oc1cc(-c2nc(-c3ccccc3)[nH]c2-c2ccncc2)ccc1Cl [L779450] (partner dose 0.2 µM) | 75.5 | 96.8 | 83.5 | 78.8 | 75.7 | 97.7
30 | Cn1sc(=O)n(Cc2ccccc2)c1=O + CS(=O)(=O)CCNCc1ccc(-c2ccc3ncnc(Nc4ccc(OCc5cccc(F)c5)c(Cl)c4)c3c2)o1 [lapatinib] (partner dose 0.8 µM) | 98.8 | 98.5 | 98.2 | 107 | 77.4 | 97.3
31 | C[C@@H](N)c1ccc(C(=O)Nc2ccnc3[nH]ccc23)cc1 + COc1ccc(C2=N[C@@H](c3ccc(Cl)cc3)[C@@H](c3ccc(Cl)cc3)N2C(=O)N2CCNC(=O)C2)c(OC(C)C)c1 [Nutlin-3] (partner dose 0.1 µM) | 116 | 72 | 90.6 | 146 | 92.2 | 92.6
